# PMC12136788
# Numbering of substitutions follows the chain as printed. Some of the results follow.
# T1: UNK ZnF1-3 (human, UniProt Q9C0B0 31-174)
# T1 sequence: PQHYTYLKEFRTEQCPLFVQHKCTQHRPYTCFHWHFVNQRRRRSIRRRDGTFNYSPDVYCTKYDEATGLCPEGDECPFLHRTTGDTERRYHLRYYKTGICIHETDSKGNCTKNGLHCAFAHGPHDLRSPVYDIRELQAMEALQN
# B1: chr5:128440902:128440903:+_ENSG00000066583_ENST00000173527|hu_mus|hu_hu_hu_mus_True|58_68 (ssRNA)
# RNA: GGGAGUUCUACAGUCCGACGAUCUUGAACGGUGCUGCCAAGUCCUUUGGGGUAUUGUUCCGUUAUGAUAACAGGAAUUCCUAAAAUCCGAGCUCCUUGCAACAGUCUCUGUCCCACACUAAUGAUGUCCCCAAAGUAUUUGAUCAACAGAGGAUUGAGCAUCA
# B2: chr4:57314706:57314707:+_ENSG00000128050_ENST00000264221|hu_mus|hu_hu_hu_mus_True|48_48 (ssRNA)
# RNA: GGGAGUUCUACAGUCCGACGAUCCAGAAUUUCAAAAAUAGCUUGUGUGGCAUGACUCAUGAUGUCCACUUCAGUCUGCCCUAUAACAAGUCCAGCAAAACAGAAUUUUGCAGCAAUGAGUUGCUCCUCAGACCACUGUGGAUCCAACAGAGGAUUGAGCAUCA
# B3: chr11:100882373:100882374:+_ENSMUSG00000019302_ENSMUST00000044721|mus_mus|mus_mus_mus_hu_True|28_68 (ssRNA)
# RNA: GGGAGUUCUACAGUCCGACGAUCUUCCUGGUUUGUGUUGAUUUCCUUCAGUUCAUUUUCAAUCUUCUCGAAAUUGGCCUCUAAGUCAAUCAUGUCCCGGGGGAAGGGCACCUCUGGGUUUUCACCGGUGUCCAUAAUCGGAAUCAACAGAGGAUUGAGCAUCA
# B4: chr6:38652254:38652255:-_ENSG00000124767_ENST00000373365|hu_hu|hu_hu_hu_mus_False|18_68 (ssRNA)
# RNA: GGGAGUUCUACAGUCCGACGAUCCGAGAACUUCAUAGCAGGGAAGUCAAGCUUCUGCAGGAGGGUCAUUCCAAGAACCCUCGUAUAAAAAUCCAGGGACUUCUUAGGAUCCUUAAUUCGUAGCAUGGUUUGCUGCAGUAGAAACAACAGAGGAUUGAGCAUCA
# B5: chr1:193053832:193053833:+_ENSG00000116747_ENST00000432079|hu_hu|FALSE|FALSE (ssRNA)
# RNA: GGGAGUUCUACAGUCCGACGAUCGAUCACUGAUGGCAAUGGAUCUCUGGAUCGUGCUGCUGCUUAUGGUUAAAUCAUAUCUAAUGUGAAAUUUCGAAUUACAUCCAGAGCUCCAGUAUCAAAGCCGCACAUAUCCAACAUGCCCAACAGAGGAUUGAGCAUCA
# B6: 92161760_92163732_446_CDS_ENSG00000127993_ENST00000265732|human|control|control (ssRNA)
# RNA: GGGAGUUCUACAGUCCGACGAUCCUUUGUCACGUAAUGGUCUUUAUUUUCAGUAGUUUUUACUACAUAUGCCUUCCGCAUUUGUAGUUUUUUUCUAGUUUCUUCAACUGUUUCAAAUUCUGGAGCAUAGCACACAUGAAGCAACAACAGAGGAUUGAGCAUCA
# B7: chr11:2966284:2966285:-_ENSG00000205531_ENST00000380542|hu_mus|FALSE|FALSE (ssRNA)
# RNA: GGGAGUUCUACAGUCCGACGAUCGAGGGUGAACCCGAUGGCUCUGGCCUCAGAGGUGUGUGCCACAACCCACCCACCCCUAAAACCAAAACGCAAGAAAAAAAAUGCUCUAAGGCGAGCACAGCUUCCUCUACAGUGCUUGGGCAACAGAGGAUUGAGCAUCA
# B8: chr4:57314706:57314707:+_ENSG00000128050_ENST00000264221|hu_mus|hu_hu_hu_mus_True|48_98 (ssRNA)
# RNA: B2 RNA with U42C
# B9: chr17:13112271:13112272:+_ENSMUSG00000068039_ENSMUST00000151287|mus_mus|motif|central (ssRNA)
# RNA: GGGAGUUCUACAGUCCGACGAUCAAUCAGGUUCUCAUUGAUAUAACGCACCGCUUCCUUGCAGGCAAGACGAUAGCCACGGAUAACUGAUGUUGGAUGAAUUUUCUGUUUGACUAGCUCAUCUGCAUUUUUCAGAAGCUCCGCCAACAGAGGAUUGAGCAUCA
# B10: chr11:87794392:87794393:-_ENSMUSG00000020483_ENSMUST00000020775|mus_mus|FALSE|FALSE (ssRNA)
# RNA: GGGAGUUCUACAGUCCGACGAUCCACACCCACCCCUGCCCCAAGCCAUAGUCACAGUUCUGUGGAAUAUUCUCCCCGGUACUAGAGCCACCACCCCCCCCCCCACCUUCCUGCCCCUCUCCUUGCCAAUCCUAACCCUGUCCUCAACAGAGGAUUGAGCAUCA
# B11: chr15:40510687:40510688:+_ENSG00000156970_ENST00000287598|hu_mus|motif|central (ssRNA)
# RNA: GGGAGUUCUACAGUCCGACGAUCCCAGAGGAGUCCAUCCCAGAAGACAUGGAGGUGCUCCUUGAACAGGAGUAAGUGCGCGGGGUCUGCUAUACCCAACAGAUCUACAUGGUAGGGAGAAGAACAGUUAGCCAGGAUCUUUUGCAACAGAGGAUUGAGCAUCA
# B12: chr7:99057753:99057754:-_ENSG00000241468_ENST00000394186|hu_mus|FALSE|FALSE (ssRNA)
# RNA: GGGAGUUCUACAGUCCGACGAUCCCGGUCAUACCCUCUCCGAAAGGCUCCGGCAAUGCCACUGGGGGUGAAAUCCCGCAUCAUUAUCCAGCUCGGCAGCUCUCCAAGUUUGACUUCCAUGAGCUUCUUCUCCUUCAGCGGCACCAACAGAGGAUUGAGCAUCA
# B13: chr3:176767854:176767855:-_ENSG00000177565_ENST00000430069|hu_hu|FALSE|FALSE (ssRNA)
# RNA: GGGAGUUCUACAGUCCGACGAUCGACAUCCUUGUUGCUUGGAACAUCUUGCCCUCCUUCUCGUAUACAAUGUCUAAGUACUAACUGUGUAGAGCCACUGGUGCUGUUCUCACUAAGAUUCCAUAUUCUUGCUGUUGAGUCUCCCAACAGAGGAUUGAGCAUCA
# B14: chr15:66169770:66169771:+_ENSG00000103769_ENST00000567671|hu_hu|motif|central (ssRNA)
# RNA: GGGAGUUCUACAGUCCGACGAUCGUCCCAUAUCUGUGCCUUUAUUGUUUUUCCAUCAACCUGGAUGCUUCUUGUUGCAAACUCGGCUCCAAUGGUGCUCUUGCUUUCCAGAUUAAACUCAUUUCGAGUAAAUCGAGACAGGAGCAACAGAGGAUUGAGCAUCA
# Target: T1, UNK ZnF1-3
# Assay: nsRBNS (natural sequence RNA bind-n-seq); RBNS binding buffer (assumed for nsRBNS): 25 mM Tris pH 7.5, 150 mM KCl, 3 mM MgCl2, 0.01% Triton X-100, 500 ug/ml BSA, 20 U/ml SUPERase-In, 4 C; UNK is unkempt and MSI1 is Musashi-1; names of the RNAs are library labels; protein concentration not given here; high values mean tight binding
row,Binder,binding signal
1,B1,1.01 enrichment R
2,B2,1.04 enrichment R
3,B3,0.488 enrichment R
4,B4,0.632 enrichment R
5,B5,0.913 enrichment R
6,B6,0.553 enrichment R
7,B7,0.851 enrichment R
8,B8,0.997 enrichment R
9,B9,0.9 enrichment R
10,B10,1.01 enrichment R
11,B11,1.02 enrichment R
12,B12,0.838 enrichment R
13,B13,0.545 enrichment R
14,B14,0.618 enrichment R
